In the RNAGym collection of RNA variant scans (doi:10.1073/pnas.2313332121):
Variants at the floor of the assay are shown more often than the library holds them.

B1: TPR 5TU (parent)
chain: GGAUCUUCUCGAUCUAACAAAAAAGACAAAUCUGCCACAAAGCUUGAGAGCAUCUUCGGAUGCAGAGGCGGCAGCCUUCGGUGGCGCGAUAGCGCCAACGUUCUCAACUAUGACACGCAAAACGCGUGCUCCGUUGAAUGGAGUUUAUCAUG

Variants of: B1
Experiment: polymerase ribozyme fitness, log enrichment relative to wild type (log ratio); higher = more active; in vitro selection for triplet polymerase activity
In short: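 A single round of triplicate in vitro selection, including frozen incubation at −7 °C, was applied to PCR-built, transcribed mutant libraries of each subunit of a heterodimeric triplet polymerase ribozyme. Illumina sequencing of input and output libraries retained genotypes with ≥10 input reads and ≥1 read per output. Fitness is the base-2 logarithm of genotype enrichment divided by wild-type enrichment, from inverse-variance-weighted replicate averages.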

Polymerase ribozyme fitness (log ratio), -0.914:
GGAUGUUCUCGAUCUAACAAGAAAGACAAAUCUGCCACAAAGCUUGAGAGCAUCAUUGGAUGCAGAGGCGGCAGCCUUCGGUGGCGCGAUAGCGCCAACGUUCUCAACUAUGACACGCAAAACGCGUGCUCCGUUGAAUGGAGUUUCUCAUG [C5G A21G U55A C57U A147C]

Polymerase ribozyme fitness (log ratio), -4.11:
GGAUGUUCUCGAUCUAACACAAAAGACAAAUCUGCCACAAAGCUUGACAGCAUCUACGGAUACAGAGGCGGCAGCCUUCGGUGGCGCGAUAGCGCCAACGUUCUCAACUAUGACACGCAAAACGCGUGCUCCGUUGAAUGGAGUUUAUCAUG [C5G A20C G48C U56A G62A]

Polymerase ribozyme fitness (log ratio), ≤ -4.2:
GGAUGUUCUCGUUCUAACAAAAAAGACAAAUCUGUCACAAAGCUUGAGAGCAUCUUCGGAUGCUGAGGCGACAGCCUUCGGUGGCGCGAUAGCGCCAACGCUCUCAACUAUGACACGCAAAACGCGUGCUCCGUUGUAUGGAGUUUAUCAUG [C5G A12U C35U A64U G71A U101C A137U]
GGAUGUUCUCGUUCUAACAAAAAAGACAAAUCUGCCACAAAGCUUGAGAGCAUCUUCGGAUGCAGAGCCGGCAGCCUUCGGUGGCGCUAUAGCGCCAACGUUCUCAACUAUGACACGCAAAACGCGUGCUCCGUUGAAUGGAGUUUAUCAUG [C5G A12U G68C G88U]
GGAUGUUCUCGAUCUCACAAAAAAGACAAAUGUGCCACAAAGCUUGGGAGCAUCUUCGGAUGCAGAGGCGGCUGUCUUCGGUGGCGCGAUAGCGCCAACGUUCUCAACUAUGACACGCAAAACGCGUGCUCUGUUGAAUGGAGUUUAUCAUG [C5G A16C C32G A47G A73U C75U C132U]
GGAUGUUCUCGAUCUACCAAAAAAGACAAAUCUGCCACAAAGCUUGAGAGCAUCUUCGGGUGCAGAGGCGGCAGCCUUCGGUGGCGCGAUAGCGCCAACGUUCUCAACUAUGACCCGCAAAACGCGUGCUCCGUCGAAUGGAGUUUACCGUG [C5G A17C A60G A115C U135C U148C A150G]
GGAUGUUCUCGAUCUAGCAAAAAAGCCAAAUCUGCCACAUAGCUUGAGAGCAUCUUCGGAUGCAGAGGCGGCAGCCUUCGGGGGCGUGAUAGCGCCAACGUUCUCAACUAUGACACGGAAAACGCGUGAUACGUUGAAUGCAGUUUAUCAUG [C5G A17G A26C A40U U82G C87U C118G C129A C131A G141C]
GGAUGUUCUCGAUCUAACACAAAAGACAAAUCUGCCACAACGCUUGAGAGCAUCUUCGCAUGCAGAGGCGGCAGCCUUCGGUGGCGCGAUAGCCCCAACGUUCUCAACUAUGACACGCAAAACGCGUGCUCCGUUUAAUGGAGUUUAUCAUG [C5G A20C A41C G59C G94C G136U]
GGAUGUUCUCGAUCUAACAACAAAGACAAAUCUGGCACAAAGCUUGAGAGCAUCUUCGGAUGCAGAGGCGGCAGCCUUCGGUGGUGCGAUAGCGCCAAAGUUCUCAACUAUGACACGCAAAACGCGUGCUCCGUUGAAUGGAGUUUAUCAUG [C5G A21C C35G C85U C99A]
GGAUGUUCUCGAUCUAACAAUAAAGACAAAUCUGCCAAAAAGCUGGAGAGCAUCUAAGGAUGCAGAGGCGGCAGCCUUCGGUGGCGCGAUAGCGCCAACGUUCUCAACUAUGAAACGCAAAACGCGUGCUCCGUUGAAUGGAGGUUAUCAUG [C5G A21U C38A U45G U56A C57A C114A U144G]
GGAUGUUCUCGAUCUAACAAUAAAGACAAAUCUGCCACAAAGCUUGAGAGCAUCUUCGGAUGCAGAGGCGGCAGCGUUCGGUGGCGCGAUAUCGCAAACGUUCUCAACUAUGAGACGCAAAACGCGAGCUCCGUUGAAUGGAGUUUAUCAUG [C5G A21U C76G G92U C96A C114G U127A]
GGAUGUUCUCGAUCUAACAAAUAAGACAAAUCUGCCACAAAGCUUGAGAGCAUCUUCGGAUGCAGAGGCGGCAGCCUUUGGUGGGGCGAUAGCGCCAACGUUCUCAGCUAUGACACGCAAAACGCGUGCUCCGUUGAAUGGAGUUUAUCAUG [C5G A22U C79U C85G A107G]
GGAUGUUCUCGAUCUAACAAAUAAGACAAAUCUGCCACAAAGCUUGAGAGCAUCUUCUGUUGCUGAGGCGGCAGCCUUCGGUCGCGCGAUAGCGCCAACGUUCUCAACUAUGACACGCAAAACGCGUGCUCCGUUGAAUGGAGUUUAUCAUG [C5G A22U G58U A60U A64U G83C]
GGAUGUUCUCGAUCUAACAAAAAGGGCAAAUCUGCCACAAAGCUUGAGAGCAUCUUCGGAUGCAGAGGCGGCAGCCUUCGGUGGCGCGAUAGCGCCAACGUUCUCAACUAUGGCAGGCAAAACGCGUGCUCCGUUGAAUGGAGUUUAUCAUG [C5G A24G A26G A113G C116G]
GGAUGUUCUCGAUCUAACAAAAAUGACAGAUCUGCCACAAAGCUUGAGCGCAUCUUUGGAUGCAGAGGCGGCAGCCUUCGGGGGCGCGAUUGCGCCACCGUUCUCAACUAUGACACGCAAAACGCGUGCUUCGUUGAAUGGAGUUUAUCAUG [C5G A24U A29G A49C C57U U82G A91U A98C C131U]
GGAUGUUCUCGAUCUAACAAAAAUGACAAAUCUGGCACAAAGCUUGAGAGCAUCUUCGGAUGCAGAGGCGGCAGCAUUCGGUGGCGCGAUAGCGCAAACGUUCUCAAUUAUGACACGCAAUACGCGUGCUCCGUUGAAUGUAGUUUAUCAUG [C5G A24U C35G C76A C96A C108U A121U G141U]
GGAUGUUCUCGAUCUAACAAAAAUGACAAAUCUGCCACAAAGCUUGAGAGCAUCUUCUGAUGCAGAGGUGGCAGCAUUUAGUGGCGCGAUAGCGCCAACGUUCUCAACUAUGACACGCAACACGCGUGCUCCGUUGAAUGGAGUUUAUCAUG [C5G A24U G58U C69U C76A C79U G80A A121C]
GGAUGUUCUCGAUCUAACAAAAAAGACCAAUCUGCCACAAAGCUUGAGAGCAUCUUCGGAUGCAGAGGCGGCGGCCUUCGGUGGCGCGAUAGCGCCAACGUUCUCAACUAUGACACGCAAAACGCGUGCUCCGUUGAAUGGAGUUUAUCAUG [C5G A28C A73G]
GGAUGUUCUCGAUCUAACAAAAAAGACCAAUCUGCCACAAAGCAUAAGAGCAUCUUCGGCGGCAGAGGCGGCAGCCUUCGGUGGCGCGAUAGCGCGAACGUUCUCAACUAUGACACGCAAAACGCGUACUCCGUUGAAUGGAGUUUAUCAUG [C5G A28C U44A G46A A60C U61G C96G G128A]
